Test results from the antibiotic and cytotoxicity screens of Wong et al. (2023).
This is one part of the list.

Assays:
HSkMC = human skeletal muscle cells; experiment: cytotoxicity call (relative viability < 0.9); details: 10 µM
HepG2 = experiment: cytotoxicity call (relative viability < 0.9); details: 10 µM
S. aureus RN4220 = experiment: growth inhibition call (relative growth <= 0.2); details: 50 µM

Row | Compound | cytotoxicity call (HSkMC) | cytotoxicity call (HepG2) | growth inhibition call (S. aureus RN4220)
1 | CC(C)(C)[S@](=O)N1Cc2cc(C(=O)NCc3ccncc3)nc(-c3cccc(-c4cccc(C#N)c4)c3)c2[C@@H]1CCO | inactive | inactive | inactive
2 | C[C@@H]1CCCCO[C@@H](CN(C)Cc2ccc(C(=O)O)cc2)[C@@H](C)CN([C@@H](C)CO)C(=O)c2cc(NC(=O)C3CCCCC3)ccc2O1 | inactive | inactive | inactive
3 | CN(CCN)c1ccccc1 | inactive | inactive | inactive
4 | C[C@@H]1CCCCO[C@@H](CN(C)Cc2ccc3c(c2)OCO3)[C@@H](C)CN([C@@H](C)CO)C(=O)c2cc(NC(=O)Nc3ccc4c(c3)OCO4)ccc2O1 | inactive | active | inactive
5 | Cn1c(=O)n(C)c2cc(S(=O)(=O)N3CC[C@H]4CNC[C@H]43)ccc21 | inactive | inactive | inactive
6 | C[C@@H]1CN([C@@H](C)CO)C(=O)c2cccc(NC(=O)CCCCCC(=O)Nc3ccccc3N)c2O[C@@H]1CN(C)S(=O)(=O)c1cn(C)cn1 | inactive | inactive | inactive
7 | O=C(C[C@H]1C[C@H]2c3cc(NS(=O)(=O)c4ccc(F)cc4)ccc3O[C@H]2[C@@H](CO)O1)NCc1cccc(F)c1 | inactive | inactive | inactive
8 | C[C@@H]1CCCCO[C@H](CN(C)Cc2ccc(C(F)(F)F)cc2)[C@@H](C)CN([C@H](C)CO)C(=O)c2cc(NS(=O)(=O)c3ccc(Cl)cc3)ccc2O1 | inactive | active | inactive
9 | CN(C)S(=O)(=O)N1CCN(CC(=O)Nc2ccc(Br)cc2)CC1 | inactive | inactive | inactive
10 | Nc1nnc([C@H]2CCCO2)s1 | inactive | inactive | inactive
11 | C[C@@H]1CCCCO[C@H](CN(C)Cc2ccc(C(=O)O)cc2)[C@@H](C)CN([C@H](C)CO)C(=O)c2cc(NC(=O)Nc3ccccc3)ccc2O1 | inactive | inactive | inactive
12 | COc1ccc(S(=O)(=O)Nc2ccc3c(c2)C(=O)N([C@@H](C)CO)C[C@H](C)[C@H](CN(C)S(=O)(=O)c2cn(C)cn2)OCCCC[C@@H](C)O3)cc1 | inactive | inactive | inactive
13 | C[C@@H]1CN([C@H](C)CO)C(=O)CCCn2cc(nn2)CO[C@H]1CN(C)C(=O)Nc1ccc2c(c1)OCCO2 | inactive | inactive | inactive
14 | C[C@@H]1CN([C@@H](C)CO)C(=O)c2cc(C#CC3(O)CCCC3)cnc2O[C@H]1CN(C)C(=O)Cc1cccnc1 | inactive | inactive | inactive
15 | C[C@H]1CN([C@@H](C)CO)C(=O)c2cccc(NC(=O)Nc3ccc(C(F)(F)F)cc3)c2O[C@H]1CN(C)Cc1ccc(C(=O)O)cc1 | inactive | inactive | inactive
16 | C[C@@H]1CCCCO[C@H](CN(C)C(=O)Nc2ccc3c(c2)OCO3)[C@H](C)CN([C@@H](C)CO)C(=O)c2cc(NC(=O)NC3CCCCC3)ccc2O1 | inactive | inactive | inactive
17 | Cn1c(=O)[nH]c(=O)c2c1nc(N1CCN(CC(N)=O)CC1)n2C/C=C/c1ccccc1 | inactive | inactive | inactive
18 | CCO[C@@H]1OC(C(=O)N2CCN(Cc3ccccc3)CC2)=C[C@H](c2ccc(C(F)(F)F)cc2)[C@H]1CCCOC(=O)NCCCCCC(=O)NO | inactive | inactive | inactive
19 | C[C@H]1CCCCO[C@H](CN(C)C(=O)Nc2cccc3ccccc23)[C@@H](C)CN([C@@H](C)CO)C(=O)c2cc(NS(=O)(=O)c3cccs3)ccc2O1 | inactive | active | inactive
20 | O=C(CN1CCOCC1)N[C@H]1CC[C@H](CCNS(=O)(=O)c2ccccc2F)O[C@H]1CO | inactive | inactive | inactive
21 | COc1ccc2c3c([nH]c2c1)[C@H](CO)N(C[C@]13CCN(CC1)C(=O)Nc1c(noc1C)C)C(=O)Nc1ccc(cc1)F | inactive | inactive | inactive
22 | C[C@@H]1CN([C@H](C)CO)C(=O)c2c(c3ccccc3n2C)-c2ccccc2CO[C@@H]1CN(C)Cc1ccc(C(F)(F)F)cc1 | active | inactive | inactive
23 | COc1ccc(NC(=O)N(C)C[C@H]2OCCCC[C@H](C)Oc3ccc(NC(=O)Nc4c(C)noc4C)cc3C(=O)N([C@@H](C)CO)C[C@@H]2C)cc1 | inactive | inactive | inactive
24 | CO[C@H]1CN(C)C(=O)c2ccc(NC(=O)Nc3ccc(Cl)cc3)cc2OC[C@H](C)N(C(=O)Nc2c(C)noc2C)C[C@H]1C | inactive | inactive | inactive
25 | C[C@H](CO)N1C[C@H](C)[C@H](CN(C)C(=O)Nc2ccc(F)cc2)Oc2ccc(NC(=O)CCCCCC(=O)Nc3ccccc3N)cc2CC1=O | inactive | inactive | inactive
